Among all 48,000 compounds or so, about 1,200 (2.5%) were called active. Another 2% or so got no clear call; they are omitted.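 Rule for the calls: active = activation of at least 60% and not above a set upper limit (about 1 call in 100 departs from these limits); inconclusive = activation of 40% to 60%, or above that upper limit; inactive = activation under 40%.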 This is one part of the list.

Sequence of UniProt O75388 (O75388 whole entry, looked up, the tested form may be a part): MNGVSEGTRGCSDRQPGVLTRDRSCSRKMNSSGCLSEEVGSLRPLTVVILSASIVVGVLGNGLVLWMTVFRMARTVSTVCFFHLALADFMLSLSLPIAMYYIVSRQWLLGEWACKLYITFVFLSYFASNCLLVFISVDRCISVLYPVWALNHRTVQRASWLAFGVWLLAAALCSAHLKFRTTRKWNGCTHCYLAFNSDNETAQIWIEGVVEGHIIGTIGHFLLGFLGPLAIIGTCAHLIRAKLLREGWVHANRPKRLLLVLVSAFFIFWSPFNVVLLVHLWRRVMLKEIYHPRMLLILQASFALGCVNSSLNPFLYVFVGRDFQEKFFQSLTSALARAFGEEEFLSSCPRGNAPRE

This assay deals with Probable G-protein coupled receptor 32 (Homo sapiens) (UniProt O75388). Nature of the assay: qHTS for Agonists of Human Resolvin D1 Receptor DRV1. Note: 0% is about no effect. The settings on record: CHO-K1 GPR32 beta-arrestin PathHunter luminescence, 90 min; at 76.9 µM; active compounds read high; zero percent set by DMSO-only wells. In short, it runs like this:
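Agonism was scored as beta-arrestin recruitment to ProLink-fused GPR32 in stably transfected CHO-K1 cells, giving a chemiluminescent beta-Gal signal; compounds were incubated 90 min at 37 °C.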
In the case of `Cc1ccc(NC(=O)Cn2c(CCC(=O)O)ccc2-c2cccs2)cc1Cl`, the activation was inactive: -5.7%.
The result for `CCc1cccc(CC)c1N(COC)C(=O)Cn1c(CC)nc2ccccc21` reads inactive: -22.1%; that for `Cc1ccc(C)c(NC(=O)CCS(=O)(=O)c2cccc3nsnc23)c1`, inactive: 3.8%.
Consider `CCc1ccc2nc(N3CCN(C(=O)c4ccccc4)CC3)sc2c1`, for which the activation was inactive: 22.9%.
As to `Cc1ccc(C)c(N2CCN(C(=O)C3CCN(S(=O)(=O)c4ccc5[nH]c(=O)oc5c4)CC3)CC2)c1`, the activation was inactive: 34.3%.
For the compound `Cn1c(=O)oc2cc(S(=O)(=O)N3CCCC(C(=O)N4CCN(c5ccc(Cl)cc5)CC4)C3)ccc21` (stereo not drawn), the activation is inactive: 0.554%.
The result for `COCCN(Cc1ccco1)C(=O)c1cc2c(Cl)nc3ccc(C)cc3c2s1` reads inactive: 0.603%; that for `COc1ccc(NC(=O)Cn2nc(SC)c(S(=O)(=O)c3ccc(C)cc3)c2N)cc1OC`, inactive: 18%; that for `CCN(CC)CCCNC(=O)CSc1nc2nc(C)c(Cc3ccccc3C)c(C)n2n1`, inactive: -17.8%.
The result for `O=C(Nc1c(Cl)cccc1Cl)c1cccc2c1C(=O)N(C1CCCCC1)C2` reads inactive: -2.69%; that for `O=C(O)c1ccc2oc(=O)n(Cc3ccccc3)c2c1`, inactive: -15.9%; that for `COc1ccc(-n2nc(C(=O)NCCCOC(C)C)c3c4ccccc4n(C)c3c2=O)cc1`, inactive: -3.96%.
The result for `CCOc1ccc(NC(=O)CC2C(=O)N(c3ccc(F)cc3)C(=O)N2CCc2sccc2C)cc1` (stereo not drawn) reads inactive: -32.4%; that for `CCC(=O)N1CCc2cc(Br)cc(S(=O)(=O)CCC(=O)N(C)c3cccc(C)c3)c21`, inactive: -18%.
On to `COc1ccc(CNc2nc3c(-c4ccc(C)cc4)nnn3c3ccccc23)cc1`, for which the activation is inactive: 26.3%.
As for `Fc1ccccc1N1CCN(c2ncnc3c2nc2n3CCCCC2)CC1`, the figure is inactive: 44.3%.
The result for `COc1ccc(C2C(=O)N(C3CCC(C)CC3)CC(=O)N2C2CCCCC2)cc1OC` (stereo not drawn) reads inactive: -5.16%.
Turning to `CCCS(=O)(=O)NCCc1csc2nc(-c3ccc(C)cc3)nn12`, the activation is inactive: -8.45%.
The result for `CCOC(=O)c1cc2c(=O)n3ccccc3nc2n(CCCOC)c1=NC(=O)c1c(-c2ccccc2Cl)noc1C` reads inactive: -19.9%; that for `Cc1nc2nc(C)c(NS(=O)(=O)c3ccc(F)cc3)c(=O)n2[nH]1`, inactive: 18.7%.
For the compound `Cc1ccccc1OCCCn1c(CCNC(=O)C2CCCCC2)nc2ccccc21`, the activation was inactive: -20.3%.
As for `O=C(Cn1cnc(S(=O)(=O)N2CCCC2)c1)Nc1cccc(F)c1`, the figure is inactive: 4.24%; as for `CCOc1ccc(NC(=O)C2CCCN(c3nn4cc(-c5ccc(OC)cc5)nc4s3)C2)cc1` (stereo not drawn), inactive: -3.91%.

These data come from PubChem BioAssay AID1346428 (National Center for Advancing Translational Sciences (NCATS), 2018).
